Reference: PMC6670151, “Modified substrate specificity of a methyltransferase domain by protein insertion into an adenylation domain of the bassianolide synthetase” (Journal of Biological Engineering, 2019)

Biological target: T1, aMTBSLS (Beauveria bassiana, UniProt D1FVF0)
T1 construct: gene BSLS
Settings: 5 mM aminoacyl-SNAC, 10 min; 100 μM AdoMet, 1.5 μM enzyme, 50 mM Na2HPO4, pH 7.5, 25 °C

CC(=O)NCCSC(=O)[C@@H](N)Cc1ccccc1 [L-Phe-SNAC]
radiometric methylation, ethyl acetate extraction, scintillation counting: aMTBSLS construct displayed little preference for L-Phe-SNAC
